Data on five compounds can be found in PubChem BioAssay (NCI).

This assay concerns NCI-H322M lung. Description: NCI anticancer screen, dose series, 48 h.

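Assay format: 96-well plates, 48-hour exposure. At the GI50, growth is halved. TGI: total growth inhibition.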 Where only a bound is given, the exact number is not on record here.

For the compound `COc1cc(OC)c(S(=O)(=O)N(CCCl)CCCl)cc1C(=O)/C=C/c1cc(OC)c(OC)c(OC)c1`, the GI50 was 3 µM and the TGI stood at 13.8 µM.

For the compound `Cc1noc2c(Cc3ccccc3)nn(CC(=O)N/N=C/c3ccc(F)cc3)c(=O)c12`, the GI50 was above 100 µM and the TGI was above 100 µM.

`CN(CCO)c1oc(-c2ccccc2)nc1[P+](c1ccccc1)(c1ccccc1)c1ccccc1`: the GI50 is 3.86 µM and the TGI came to 16.3 µM.

Take `FC(F)(F)c1cc2c(Cl)ncnc2n1CCC1CCOCC1`: the GI50 is 3.14 µM and the TGI is 12.5 µM.

Take `O=C(Nc1cccc(-c2cn(-c3ccc4oc(=O)ccc4c3)nn2)c1)Nc1cc(C(F)(F)F)cc(C(F)(F)F)c1`: the GI50 was above 100 µM and the TGI is above 100 µM.
